In the supplement of paper PMC3334620:
In all, about 33,000 sequences were measured (“E-score (-0.5 to 0.5)”: median about -0.021, highest 2% from about 0.32 on). This is one part of the list.

The sequences below were run against T1, Zap1 (UniProt P47043) (assay: PBM E-score (8-mer binding enrichment) (E-score (-0.5 to 0.5)); higher = stronger / more preferred TF binding; most listed sequences are background and not binding sites). Settings: protein concentration: 200 nM; construct: GST-full length.
T1 sequence: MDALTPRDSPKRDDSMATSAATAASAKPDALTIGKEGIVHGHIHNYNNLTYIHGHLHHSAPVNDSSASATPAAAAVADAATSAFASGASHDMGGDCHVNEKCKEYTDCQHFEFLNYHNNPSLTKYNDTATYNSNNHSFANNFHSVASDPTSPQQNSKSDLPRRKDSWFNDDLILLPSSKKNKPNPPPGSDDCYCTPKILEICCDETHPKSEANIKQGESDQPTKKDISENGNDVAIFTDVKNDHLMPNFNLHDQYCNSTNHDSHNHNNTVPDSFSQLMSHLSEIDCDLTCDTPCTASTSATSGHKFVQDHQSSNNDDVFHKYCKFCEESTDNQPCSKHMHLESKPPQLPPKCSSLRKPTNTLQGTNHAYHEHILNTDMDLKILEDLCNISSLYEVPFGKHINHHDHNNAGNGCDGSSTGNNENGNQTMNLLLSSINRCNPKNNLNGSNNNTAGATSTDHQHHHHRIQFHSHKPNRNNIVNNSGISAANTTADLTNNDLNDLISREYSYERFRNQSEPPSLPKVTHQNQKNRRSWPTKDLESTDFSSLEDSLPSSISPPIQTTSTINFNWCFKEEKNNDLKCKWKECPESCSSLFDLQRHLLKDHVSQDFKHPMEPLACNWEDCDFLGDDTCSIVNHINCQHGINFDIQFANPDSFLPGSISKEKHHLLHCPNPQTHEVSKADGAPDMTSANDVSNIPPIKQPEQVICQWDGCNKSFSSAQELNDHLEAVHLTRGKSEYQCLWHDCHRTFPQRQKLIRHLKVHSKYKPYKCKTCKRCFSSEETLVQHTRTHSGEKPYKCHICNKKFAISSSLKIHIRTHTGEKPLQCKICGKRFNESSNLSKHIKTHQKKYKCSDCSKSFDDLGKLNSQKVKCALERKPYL
Method in brief: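 E-scores (a modified Wilcoxon-Mann-Whitney statistic) were assigned by the Universal PBM Analysis Suite to every ungapped eight-base word pooled with its reverse complement. The input came from universal all-10-mer Agilent arrays made double-stranded by primer extension and probed with GST-tagged yeast transcription factors at about 100-200 nM. Fluorescent anti-GST detected bound protein, and masliner normalised the scans.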

| Sequence | PBM E-score |
| --- | --- |
| GCCCACGC | -0.229 |
| CGTCTTCA | -0.126 |
| ACGGGTGA | -0.11 |
| CATAATTC | 0.0244 |
| ACGAGTCA | -0.0811 |
| AAATGTAC | 0.147 |
| AGTGATCC | -0.0223 |
| CGAAGAAA | -0.0368 |
| TAAACTAA | 0.239 |
| CCGGGAGA | 0.0106 |
| CCCCAGTA | -0.0431 |
| CAATTTAC | 0.164 |
| GTCTTAAC | 0.0858 |
| ATAGGCTC | -0.182 |
| CCAAGAGC | -0.0126 |
| CCGAAACG | 0.0174 |
| CGTAGTGC | -0.209 |
| GATATGCC | -0.235 |
| CGAGAACA | -0.0673 |
| GGAAGCCA | -0.444 |
| CCGTGGTC | 0.0847 |
| CCGCACCA | -0.0775 |
| CAGATAGA | -0.123 |
| CCGAGCAA | -0.215 |
| AGCTCACT | -0.157 |

| Sequence | PBM E-score |
| --- | --- |
| CCAGCCAA | -0.0938 |
| AGTTCGTG | 0.038 |
| CGTTGCTA | -0.0543 |
| CGTGTTGA | -0.0441 |
| CTTAACGA | -0.00709 |
| AGCTATCG | -0.199 |
| CGCGGCAA | -0.0744 |
| GTACTTGA | -0.147 |
| CCTCGTAG | 0.135 |
| ACTACATG | 0.04 |
| ATTTCATA | 0.208 |
| GTCAGGCA | -0.139 |
| CAGTCGGC | -0.171 |
| ACAAAGAG | -0.217 |
| CGGATACG | -0.0689 |
| ATCTACGG | -0.103 |
| CAGTGATG | -0.142 |
| AAAAAATC | 0.126 |
| CCGCTGAG | -0.208 |
| GGGGGGAC | -0.28 |
| ACTTGGAC | 0.0174 |
| ACCTTCTC | 0.03 |
| ACCTGCCG | -0.0789 |
| TCAATGAA | 0.00579 |
| AGACATAG | -0.0994 |

| Sequence | PBM E-score |
| --- | --- |
| AGCGGCTA | -0.0319 |
| ATTGCGCC | -0.114 |
| CTATGTGA | 0.00092 |
| CGAACATA | 0.0418 |
| AGAACACA | 0.0853 |
| AGGTTAGC | 0.23 |
| CAGTCAAG | 0.0177 |
| GCACCTAC | -0.157 |
| TAGACCAA | 0.0735 |
| GGATCCCA | -0.0539 |
| TACCAGAA | 0.26 |
| AGAAATGA | 0.0828 |
| ATGACCCC | 0.385 |
| ACCGACTC | -0.0769 |
| CGTTCGAC | -0.255 |
| CTATTACC | 0.129 |
| ACGGGTAC | 0.231 |
| GGGCTGAC | -0.0973 |
| AAGTAGAG | -0.203 |
| TAAAATGA | 0.204 |
| CCAGTGGC | -0.0278 |
| AAGGTCGG | 0.174 |
| AATAAGTG | 0.0312 |
| AGCTTCTA | -0.283 |
| ACACATCT | 0.00083 |

| Sequence | PBM E-score |
| --- | --- |
| CCCACTAA | 0.173 |
| CGTGGCAC | -0.0778 |
| CCCAGCTC | -0.26 |
| GAATCCTC | -0.189 |
| CAGAGTCC | -0.0013 |
| CCCTAGCC | -0.047 |
| CTTTAGGC | -0.131 |
| ACGTACAA | 0.114 |
| GCCCGGCA | -0.177 |
| ATGGGAGG | 0.0318 |
| ATGACGCA | -0.0504 |
| CTCAACGA | -0.128 |
| CTTGTACC | 0.0668 |
| GCTTTCCC | -0.195 |
| TACAGCGA | -0.129 |
| CGGGTGTA | 0.0123 |
| ATTCAATG | 0.00918 |
| AAATGGCT | 0.00044 |
| AAGGTTAC | 0.475 |
| ATCGTCTC | -0.177 |
| ACTACTAC | 0.0865 |
| AGCTCGTA | 0.0234 |
| TGCATGCA | 0.00784 |
| AAGGCATT | -0.172 |
| CCTTATTA | 0.0942 |

| Sequence | PBM E-score |
| --- | --- |
| AAAGGTGT | -0.0367 |
| CAGGACTC | -0.211 |
| AATTGACT | -0.139 |
| CCCCAGAG | -0.0329 |
| ACCCACTC | 0.0493 |
| ATCGGCCA | -0.143 |
| ACCAGCCA | -0.111 |
| CACGTACC | -0.172 |
| CGTGTCAC | 0.0583 |
| GACGACGC | -0.222 |
| ATACGTCA | -0.0248 |
| AGCGGTCG | -0.226 |
| AAACTTGC | -0.0339 |
| ATGTTCTA | 0.0439 |
| ACCTCCCA | -0.0877 |
| ACCCACAA | 0.353 |
| GACTGACC | -0.0679 |
| AGAGCAGC | -0.302 |
| TCCATTCA | 0.0213 |
| CAACTCGG | 0.0516 |
| GCACTAGC | -0.207 |
| CCGCCCTC | -0.0988 |
| AGTGCCAT | -0.217 |
| GACCAATA | 0.0837 |
| GGCTGCTA | -0.203 |

| Sequence | PBM E-score |
| --- | --- |
| CCGTCGGA | -0.182 |
| ACCATGCT | -0.0291 |
| CAAGTTTC | -0.0424 |
| CTAGCTGC | -0.249 |
| AGGAGTAC | -0.0198 |
| AATTTTAT | 0.215 |
| ACCAATGA | 0.0415 |
| CACCATTC | -0.0765 |
| ATAGTTGG | -0.0799 |
| AGTCCGAA | -0.0748 |
| ACCGGGAC | -0.0187 |
| GTGACGAA | 0.0255 |
| CCCAAGGG | 0.326 |
| AATAAGAG | -0.0531 |
| TATGCTCA | -0.0266 |
| ATGTCCAA | 0.237 |
| TGCGTAAA | 0.0331 |
| CCTTGCAA | -0.0371 |
| GCTGTGAA | 0.0749 |
| ATTCAAAC | 0.128 |
| ACGGGAGA | -0.116 |
| CCCAACCA | 0.123 |
| ACAGGTTA | 0.398 |
| AGTAGTCG | -0.0515 |
| GTTCACCA | -0.0739 |

| Sequence | PBM E-score |
| --- | --- |
| AATTCATC | -0.144 |
| AATGAGCA | -0.0188 |
| AGCCCCAG | -0.101 |
| GCGAAGAC | -0.231 |
| CGTTCTTC | 0.00343 |
| GAAAACCC | 0.252 |
| CGGGCATC | -0.212 |
| CGGAAGTA | -0.0922 |
| GATAATAA | 0.0657 |
| CCCCACCG | 0.163 |
| GATATTGC | 0.00781 |
| AGGTGCCG | -0.0629 |
| GCCGAAGC | -0.31 |
| CCGTAGAG | 0.125 |
| ATGCCCAG | -0.268 |
| CGCTAAAC | -0.0872 |
| CAGTAAGC | -0.0263 |
| CTAGAGTC | -0.248 |
| AGAGACTC | -0.172 |
| CGAGTGCG | -0.106 |
| AAGGCATC | -0.178 |
| CTAAAGCA | -0.0501 |
